# Test results published in PubChem BioAssay AID1347165 (National Center for Advancing Translational Sciences (NCATS), 2019).
# Out of some 220,000 compounds screened, about 5,700 (2.6%) were called active. The inconclusive results got no clear call from the source; some entries with a clear call stand among them for comparison. Calls come from the whole dose curve; as a rule, active = well fitted inhibition curve with a large enough effect; inconclusive = small, poorly fitted or top-dose-only effect; inactive = no such curve, though single readings can be large or run the other way. Where the call is inconclusive, the potency comes from a doubtful curve fit.
# Target: Lysine-specific demethylase 5B (Homo sapiens) (UniProt Q9UGL1)
# Test: Primary screen for KDM5B Histone Demethylases FDH-coupled qHTS; note: nearly all actives have a fitted effect of over 70% in size; for activity change, negative = inhibition: 0% is about no effect
# Conditions: FDH-coupled NADH fluorescence (FDH is formaldehyde dehydrogenase); activity change, negative = inhibition: at 57.7 µM (top of the series) unless noted
# Method in brief: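 qHTS format, multiple compound concentrations. Buffer 50 mM HEPES pH 7.5/0.01% Tween-20; 200 nM KDM5BΔAP final; 10 min compound preincubation; substrate-mix levels 12.5 µM peptide, 25 µM α-KG, 0.25 mM NAD⁺; 30 min RT; ΔRFU.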
# Potency is the fitted concentration of half-maximal effect; tags give direction and shape of the fitted curve.
# UniProt Q9UGL1, sequence (Q9UGL1 whole entry, looked up): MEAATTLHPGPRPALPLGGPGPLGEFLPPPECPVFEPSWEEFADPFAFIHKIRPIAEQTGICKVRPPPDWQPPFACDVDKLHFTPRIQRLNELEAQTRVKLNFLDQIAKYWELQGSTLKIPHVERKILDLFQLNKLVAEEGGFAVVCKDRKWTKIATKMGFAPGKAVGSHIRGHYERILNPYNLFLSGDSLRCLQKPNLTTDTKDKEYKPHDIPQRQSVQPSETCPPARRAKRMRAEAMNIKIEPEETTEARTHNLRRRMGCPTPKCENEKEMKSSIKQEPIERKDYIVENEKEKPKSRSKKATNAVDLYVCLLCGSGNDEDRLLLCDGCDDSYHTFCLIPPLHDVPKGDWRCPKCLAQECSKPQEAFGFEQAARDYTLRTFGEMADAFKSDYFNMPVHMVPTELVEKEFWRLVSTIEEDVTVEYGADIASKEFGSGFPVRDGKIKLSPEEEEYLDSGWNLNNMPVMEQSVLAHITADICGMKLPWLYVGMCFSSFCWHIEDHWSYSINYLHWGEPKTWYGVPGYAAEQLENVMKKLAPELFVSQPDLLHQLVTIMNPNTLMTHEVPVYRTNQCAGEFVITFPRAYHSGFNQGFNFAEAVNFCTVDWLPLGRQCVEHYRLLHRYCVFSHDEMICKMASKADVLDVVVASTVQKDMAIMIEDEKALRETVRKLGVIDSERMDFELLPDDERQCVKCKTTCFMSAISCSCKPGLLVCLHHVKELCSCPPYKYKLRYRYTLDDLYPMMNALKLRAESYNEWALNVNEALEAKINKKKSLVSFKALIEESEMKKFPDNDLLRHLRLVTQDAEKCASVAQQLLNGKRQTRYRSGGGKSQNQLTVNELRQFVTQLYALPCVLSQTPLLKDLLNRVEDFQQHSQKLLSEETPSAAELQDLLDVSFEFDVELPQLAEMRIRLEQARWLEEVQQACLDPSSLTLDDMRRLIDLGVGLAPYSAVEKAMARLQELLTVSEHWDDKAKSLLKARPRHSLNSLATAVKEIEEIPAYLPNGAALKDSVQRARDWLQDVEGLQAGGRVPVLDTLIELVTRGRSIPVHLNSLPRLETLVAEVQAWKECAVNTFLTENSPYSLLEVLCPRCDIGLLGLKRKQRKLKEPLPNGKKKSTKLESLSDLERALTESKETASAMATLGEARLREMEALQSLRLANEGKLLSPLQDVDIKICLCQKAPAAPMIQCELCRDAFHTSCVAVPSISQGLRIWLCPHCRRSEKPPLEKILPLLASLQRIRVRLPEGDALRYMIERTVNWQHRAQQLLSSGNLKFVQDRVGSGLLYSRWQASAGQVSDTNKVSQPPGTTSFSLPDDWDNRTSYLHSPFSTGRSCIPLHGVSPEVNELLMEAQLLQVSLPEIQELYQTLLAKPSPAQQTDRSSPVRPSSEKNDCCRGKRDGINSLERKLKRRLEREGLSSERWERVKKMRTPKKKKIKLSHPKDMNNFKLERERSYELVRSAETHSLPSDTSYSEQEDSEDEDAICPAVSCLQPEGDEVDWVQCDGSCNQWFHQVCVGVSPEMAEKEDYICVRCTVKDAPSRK
SMILES,Potency,"activity change, negative = inhibition"
CC1=C(C(=O)N2CCOCC2)C(c2cc(Br)ccc2F)C2=C(CC(C)(C)CC2=O)N1 (configuration not stated),"inconclusive: 20 µM [inhibitor, partial curve, poor fit]",
CC1CCN(S(=O)(=O)c2ccc3nc(NC4CCCCCC4)ccc3c2)CC1,"inconclusive: 2.82 µM [inhibitor, full curve, poor fit]",
CCSc1nc2c(c(=O)[nH]c(=O)n2C)n1CC(O)COc1ccc(Cl)cc1 (configuration not stated),"inconclusive: 17.8 µM [inhibitor, partial curve, poor fit]",
CCN(CC)C(=O)CN1CCN(C(=O)c2cc(-c3ccc(OC)cc3)nc3ccccc23)CC1,"inconclusive: 25.1 µM [inhibitor, partial curve, poor fit]",
COc1ccc(OC)c(/C=N/NC(=O)C(=O)N2CCCCCC2)c1,"inconclusive: 28.2 µM [inhibitor, single point]",
O=C(/C=C/c1ccco1)c1cccs1,"inconclusive: 17.8 µM [inhibitor, partial curve, poor fit]",
Cc1ccc(NC(=O)C2CCCN(c3ncccn3)C2)c(C)c1 (configuration not stated),"inconclusive: 12.6 µM [inhibitor, partial curve, poor fit]",
COc1ccc(/C=C/c2ccc3c(c2)C(=O)N2CC[C@H](NC(=O)c4cnccn4)[C@H]2C(=O)N3)cc1,"inconclusive: 35.5 µM [inhibitor, single point]",
COC(=O)CC1=C(C(=O)OC)C(c2ccc(OC)cc2)C(C#N)=C(N)O1 (configuration not stated),"inconclusive: 39.8 µM [inhibitor, single point]",
FC(F)(F)c1cccc(N2NC3(CCCCC3)NC2=S)c1,"inconclusive: 39.8 µM [inhibitor, single point]",
COc1ccccc1NC(=O)c1c(NC(=O)c2ccccc2F)sc2c1CCC2,,inconclusive: -30.3% [inhibitor] [at 11.5 µM]
Cc1nc(SCC(=O)NCc2ccc(S(=O)(=O)N3CCOCC3)cc2)n(C2CCCC2)c1C,inactive,
CCCn1c(=O)[nH]c(=O)c2c(-c3cccc4ccccc34)ccnc21,"inconclusive: 25.1 µM [inhibitor, partial curve, poor fit]",
Cc1cccc(C)c1NC(=O)c1cnc2ccccc2n1,inactive,
Cc1ccc(NC(=O)N2C[C@@H](Oc3cccnc3)C[C@H]2C(=O)N2CCCC2)cc1C,inactive,
CC(=O)N1CCc2c(sc3c2c(=O)n(-c2ccc(C)cc2)c(=O)n3CC(=O)Nc2ccccc2)C1,"inconclusive: 3.98 µM [inhibitor, full curve, poor fit]",
O=C(Cc1c[nH]c2ncc(-c3cn[nH]c3)cc12)NCc1cccnc1,"inconclusive: 39.8 µM [inhibitor, single point]",
O=C(NCC1(c2ccccc2)CCC1)c1cc(=O)[nH]c2ccccc12,"inconclusive: 28.2 µM [inhibitor, single point]",
CC(C)c1ccc(Nc2c(-c3ccccc3O)nc3cnccn23)cc1,"inconclusive: 15.8 µM [inhibitor, single point]",
COC(=O)/C=C/c1ccc(OS(C)(=O)=O)c(OC)c1,"inconclusive: 39.8 µM [inhibitor, single point]",
Cc1ccc(-n2c(SCC(=O)Nc3cccc(Cl)c3)nc3n[nH]c(C)c3c2=N)cc1,"inconclusive: 35.5 µM [inhibitor, partial curve, poor fit]",
Cc1oc(-c2cccs2)nc1CC(=O)Nc1ccccc1Cc1ccccc1,"inconclusive: 12.6 µM [inhibitor, partial curve, poor fit]",
CC(C)(N)C(=O)N1CCN(c2nc(-c3ccccc3)nc3c2CCC3)CC1,inactive,

SMILES,Potency,"activity change, negative = inhibition"
COc1cccc(-c2cn3c(n2)N(C(=O)c2ccco2)CCC3)c1,"inconclusive: 28.2 µM [inhibitor, partial curve]",
Cc1cn2nc(C(=O)Nc3ccc(F)c(C)c3)cc2c(N2CCSCC2)n1,active: 31.6 µM,
CCc1nc(-c2c3n(c(=O)n(CC#N)c2=O)CCCCC3)no1,inactive,
COc1ccc(NC(=O)c2nnn(Cc3ccc(Br)cc3F)c2N)c(OC)c1,,inconclusive: -31.6% [inhibitor]
O=C(N1CCOc2ccc(CN3CCc4ccccc4C3)cc2C1)C1(c2ccccc2)CC1,"inconclusive: 14.1 µM [inhibitor, partial curve]",
CCOc1ccc(CNC(=O)c2ccc(CS(=O)c3ccccc3)o2)cc1 (configuration not stated),,inconclusive: -41.2% [inhibitor]
COc1ccc(-c2c(C)c3ccc(OC(=O)N4CCOCC4)cc3oc2=O)cc1,inactive,
CN(Cc1ccc(C(=O)NCC(F)(F)F)cc1)c1nc2ccccc2o1,inactive,
COc1ccc(N2CCN(C(=O)c3nc(-c4ccc(Cl)cc4)n4c3CCCCC4)CC2)cc1,"inconclusive: 31.6 µM [inhibitor, single point]",
COc1cc2c(cc1CN1CCN(c3ccc(C#N)cc3)C(=O)C1)CCC2,active: 31.6 µM,
O=c1cc(-c2ccccc2)c2ccc(OCc3ccc(-c4ccccc4)cc3)cc2o1,inactive,
C/C(CC(C)(C)c1ccccc1)=N\NC(=O)CCSc1ccccc1,inactive,
c1ccc(-c2cc3c(cn2)NCCN(Cc2ccsc2)C3)cc1,active: 35.5 µM,
CCC(C)NC(=O)c1cc2c(=O)[nH]c3ccc(C)cc3c2s1 (configuration not stated),"inconclusive: 3.16 µM [inhibitor, full curve, poor fit]",
O=C1COCCN1C1CCN(S(=O)(=O)c2cccc(C(F)(F)F)c2)CC1,inactive,
CCCNC(=O)C(C)NC(=O)Cc1ccc(S(=O)(=O)N2CCCCC2)cc1 (configuration not stated),inactive,
O=C(CN1CCN(c2ccc(C(F)(F)F)cn2)CC1)NC1CCS(=O)(=O)C1 (configuration not stated),inactive,
O=C(O)CO[C@@H]1COCC[C@H]1NC(=O)c1cccc2c1OCCO2,"inconclusive: 35.5 µM [inhibitor, single point]",
CC1(C)N=C(c2ccc(Br)cc2)C(=S)N1,inactive,
Cc1ccc2cc3cc(C(=O)Nc4ccc(F)cc4Cl)oc3nc2c1,"inconclusive: 4.47 µM [inhibitor, partial curve, poor fit]",
CC(=O)Nc1ccc(C2(C(=O)NCc3cccs3)CCCCC2)cc1,inactive,
COc1ccc(-c2nn(C)c3sc(C(=O)Nc4cccc(F)c4)cc23)cc1OC,"inconclusive: 35.5 µM [inhibitor, partial curve, poor fit]",
c1ccc(NCCn2cc(C3CCCNC3)nn2)cc1 (configuration not stated),"inconclusive: 12.6 µM [inhibitor, partial curve]",

SMILES,Potency,"activity change, negative = inhibition"
OCC1CN(c2ncccn2)CC12CCN(Cc1cccnc1)CC2 (configuration not stated),"inconclusive: 31.6 µM [inhibitor, partial curve, poor fit]",
CN(C)C(=O)c1nc(-c2ccccc2)c2ccccn12,inactive,
O=C(COc1ccc2ccc(=O)oc2c1)NCCc1ccccc1,"inconclusive: 25.1 µM [inhibitor, partial curve, poor fit]",
COc1ccc2c(c1)C(C[C@H]1CN(C(=O)C3CC3)CC[C@H]1CC(=O)O)=NCC2,active: 39.8 µM,
CCCNC(=O)Cn1c(C)ccc(NC(=O)Nc2ccc(OC)cc2)c1=O,"inconclusive: 39.8 µM [inhibitor, single point]",
COc1cccc(OC)c1C(=O)Nc1ccc2oc(-c3cccnc3)nc2c1,"inconclusive: 28.2 µM [inhibitor, partial curve, poor fit]",
Cc1ccc(S(=O)(=O)N2CCCC2C(=O)n2nc(C)c(Sc3ccccc3)c2C)cc1 (configuration not stated),inactive,
COCCn1c(SCC(=O)c2cc(C)ccc2C)nc2cc(C(=O)NC3CCCC3)ccc2c1=O,,inconclusive: -38.3% [inhibitor]
Cc1nn(CC(=O)NC2CC2)c(=O)c2cc3ccccc3n12,"inconclusive: 5.01 µM [inhibitor, partial curve, poor fit]",
CCN(CC)CCN(C(=O)c1ccco1)c1nc2ccc(Cl)cc2s1,"inconclusive: 31.6 µM [inhibitor, single point]",
O=C(N[C@H]1C[C@H]2C(=O)NC[C@@H](CCC(=O)N3CCN(c4ccccn4)CC3)N2C1)c1cccs1,"inconclusive: 28.2 µM [inhibitor, single point]",
CCOC(=O)N1CCN(C(=O)CN(c2cccc(Cl)c2C)S(=O)(=O)c2ccc(C)cc2)CC1,"inconclusive: 2.82 µM [inhibitor, full curve, poor fit]",
COc1ccc(C2=NN(C(=O)CSc3nc4ccccc4[nH]3)C(c3ccco3)C2)cc1 (configuration not stated),inactive,
COc1ccccc1-c1nc(-c2ccc(Br)o2)no1,"inconclusive: 20 µM [inhibitor, partial curve, poor fit]",
COc1ccccc1OCCn1cc(C(=O)c2cccs2)c2ccccc21,"inconclusive: 2.24 µM [inhibitor, partial curve, poor fit]",
COCCc1noc(C2Cc3ccccc3N2C(=O)Nc2cc(C)cc(C)c2)n1 (configuration not stated),"inconclusive: 31.6 µM [inhibitor, single point]",
CC1CCC/C(=N/NC(=O)C2CC2)C1 (configuration not stated),inactive,
COC(=O)c1ccc(Nc2ncnc3c2nc2n3CCCC2)cc1,"inconclusive: 28.2 µM [inhibitor, partial curve, poor fit]",
COc1cccc(CC(=O)N2CCC3(CC2)CN(c2ncccn2)CC3CO)c1 (configuration not stated),"inconclusive: 31.6 µM [inhibitor, partial curve, poor fit]",
COc1ccc(CCC(=O)N[C@@H]2CN(c3ncccn3)C[C@H]2CO)cc1,active: 22.4 µM,
Cc1cc(=O)[nH]c(SCc2cn3ccccc3n2)n1,"inconclusive: 39.8 µM [inhibitor, partial curve, poor fit]",
